Data taken from patent US6479653.

Target: GF4 (GAL4 DNA binding domain fused to four FKBP12) (yeast; human) (UniProt P04386)
Assay: cell-based or functional assay

Substance | SEAP reporter gene expression, HT1080 B cells, 10 nM rapamycin, high amount of activation domain plasmid; fold over GF4+RS [fold]
RMTSV (RMTS fused to VP16 activation domain) (from UniProt P42345 2025-2113; P03023 324-360; Q04206 361-550; P06492 419-490) | 4
RMTS (FRB - lactose repressor minimal tetramerization domain 324-360 - p65 activation domain) (from UniProt P42345 2025-2113; P03023 324-360; Q04206 361-550) | 2
